# Data taken from PubChem BioAssay AID720708 (National Center for Advancing Translational Sciences (NCATS), 2013).
# Hit rate of the full screen: of about 360,000 compounds, about 660 (0.18%) were called active. The shares of active, inactive and inconclusive entries below differ from those in the screen. Calls follow the shape of the dose curve; as a rule, active = well fitted inhibition curve with a large enough effect; inconclusive = small, poorly fitted or top-dose-only effect; inactive = no such curve, though single readings can be large or run the other way. No potency is given beside an inconclusive call; the fits are too rough.
# Biological target: Rap guanine nucleotide exchange factor 4 (Homo sapiens) (UniProt Q8WZA2)
# Test: qHTS for Antagonist of cAMP-regulated guanine nucleotide exchange factor 2 (EPAC2): primary screen; also: nearly all actives have a fitted effect of over 45% in size
# Settings: EPAC2 GEF exchange of Rap1B-BODIPY-GDP, fluorescence; activity, negative = inhibition: at 114 µM (top of the series) unless noted
# % is scaled to controls: 0 for no effect and ±100 for the full control effect; potency is read from the fitted curve at half-maximal effect; tags tell the direction and shape of the fitted curve.
# Chain of UniProt Q8WZA2 (Q8WZA2 whole entry, looked up): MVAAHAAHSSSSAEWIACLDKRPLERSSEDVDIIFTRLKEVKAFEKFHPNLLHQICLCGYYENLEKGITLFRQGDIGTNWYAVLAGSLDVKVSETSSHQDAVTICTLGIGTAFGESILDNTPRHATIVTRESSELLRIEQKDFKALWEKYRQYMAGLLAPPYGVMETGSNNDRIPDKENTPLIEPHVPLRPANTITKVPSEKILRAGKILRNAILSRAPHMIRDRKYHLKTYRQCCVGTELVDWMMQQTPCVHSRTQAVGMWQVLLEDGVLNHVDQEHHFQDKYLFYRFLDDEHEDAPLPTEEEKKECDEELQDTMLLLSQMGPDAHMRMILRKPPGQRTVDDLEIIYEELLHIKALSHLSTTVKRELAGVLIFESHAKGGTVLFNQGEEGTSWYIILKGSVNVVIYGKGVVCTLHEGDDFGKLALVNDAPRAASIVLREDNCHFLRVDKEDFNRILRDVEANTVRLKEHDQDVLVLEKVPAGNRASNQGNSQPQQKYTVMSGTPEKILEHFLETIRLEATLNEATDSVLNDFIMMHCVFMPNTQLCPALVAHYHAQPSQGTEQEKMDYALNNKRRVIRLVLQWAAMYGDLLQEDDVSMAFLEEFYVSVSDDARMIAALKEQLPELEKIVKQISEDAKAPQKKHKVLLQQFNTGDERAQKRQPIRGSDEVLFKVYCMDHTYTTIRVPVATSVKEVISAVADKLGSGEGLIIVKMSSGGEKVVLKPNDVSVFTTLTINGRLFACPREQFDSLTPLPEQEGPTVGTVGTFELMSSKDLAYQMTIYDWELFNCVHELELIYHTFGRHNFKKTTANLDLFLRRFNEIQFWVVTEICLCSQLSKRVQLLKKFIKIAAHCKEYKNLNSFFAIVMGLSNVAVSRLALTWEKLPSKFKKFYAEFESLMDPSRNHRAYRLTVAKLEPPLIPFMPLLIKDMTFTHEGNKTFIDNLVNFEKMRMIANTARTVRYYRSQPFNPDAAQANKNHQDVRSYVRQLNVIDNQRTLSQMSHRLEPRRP
Compound,"activity, negative = inhibition",Potency
S=C(NC1CCCCC1)N1CCN(c2ccccn2)CC1,inactive: 0.159%,
O=c1cc(-c2ccccc2Cl)oc2ccc([N+](=O)[O-])c(O)c12,inactive: -13.1%,
O=C1/C(=C\c2ccc(C(F)(F)F)cc2)CSc2sccc21,,"inconclusive [inhibitor, partial curve]"
O=C(O)[C@H](Cc1ccccc1)N1C(=O)c2c(Cl)c(Cl)c(Cl)c(Cl)c2C1=O,,"inconclusive [inhibitor, full curve]"
CCc1cccc2c(C(=O)C(NCCOC)c3ccccc3)c[nH]c12 (stereo not drawn),,"inconclusive [inhibitor, partial curve]"
COc1ccc(N2CCN(C(=O)c3ccc4c(=O)n5c(nc4c3)CCCCC5)CC2)cc1,,"inconclusive [inhibitor, single point]"
COc1ccc(C(=O)Nc2ccc(NC(=O)c3cccc(F)c3)cn2)cc1,,"inconclusive [inhibitor, full curve]"
CCOC(=O)C(=CNNc1cccc(Cl)c1)C(=O)OCC,inactive: -18.4%,
COC(=O)C1=C(C)NC=C([N+](=O)[O-])C1c1ccc(OC)cc1 (stereo not drawn),,"inconclusive [inhibitor, single point]"
COc1cccc(CN(C)C(=O)CC23CC4CC(CC(C4)C2)C3)c1OC,,"inconclusive [inhibitor, partial curve]"
CCCCOc1ccc([N+](=O)[O-])cc1C(=O)O,,"inconclusive [inhibitor, full curve]"
O=C1CCCN2N=C(SCC(=O)Nc3cccc(F)c3)SC2=N1,,"inconclusive [inhibitor, single point]"
COC(=O)CC1(C(=O)OC)Oc2ccc(Br)cc2C(=O)N1c1cc(Cl)c(Cl)cc1Cl (stereo not drawn),,"inconclusive [inhibitor, partial curve]"
Cc1cc(O)c(C(C)C)cc1N=Nc1ccccc1C(=O)O,,"inconclusive [inhibitor, partial curve]"
O=C1Nc2ccc([N+](=O)[O-])cc2C1=Nc1cccc(CO)c1,,"inconclusive [inhibitor, partial curve, poor fit]"
O=S(=O)(O)c1cc(Cl)cc(N=Nc2ccc(O)cc2O)c1O,,"inconclusive [inhibitor, partial curve]"
O=C(NN1C(=O)/C(=C/c2ccc(O)c([N+](=O)[O-])c2)SC1=S)c1ccccc1Cl,,"inconclusive [inhibitor, single point]"
CC(C)Cc1nnc(NC(=O)CSc2nc(-c3ccccc3)cc(=O)[nH]2)s1,,"inconclusive [inhibitor, partial curve]"
O=C(N/N=C/CCc1ccccc1)c1ccccc1,inactive: -10.6%,
O=[N+]([O-])c1cc2c(c3cccnc13)COCO2,inactive: -1.02%,
C[C@H]1CN([C@@H](C)CO)S(=O)(=O)c2ccc(C3=CCCC3)cc2O[C@@H]1CN(C)C(=O)C1CCCCC1,,"inconclusive [inhibitor, partial curve]"
Cc1sc2ncnc(N3CCCC(C)C3)c2c1C (stereo not drawn),,"inconclusive [inhibitor, partial curve]"

Compound,"activity, negative = inhibition",Potency
C#C[C@]1(OC(C)=O)CCC2C3CCC4=CC(=O)CC[C@@H]4C3CC[C@@]21C (stereo partly drawn),,"inconclusive [inhibitor, partial curve]"
CCCSc1ccc(-c2nn(-c3ccccc3)cc2/C=C(/C#N)C(=O)N2CCOCC2)cc1,,"inconclusive [inhibitor, full curve, poor fit]"
COc1cnc(-c2ccccn2)nc1Sc1ccccc1,,"inconclusive [inhibitor, partial curve]"
Cc1ccc(O)c(CNc2cccc3cccnc23)c1,,"inconclusive [inhibitor, partial curve]"
CC(C)CC1C(=O)N(Cc2cn(Cc3ccco3)nn2)CCS(=O)(=O)N1Cc1ccc(-c2ccc(F)cc2)cc1 (stereo not drawn),,"inconclusive [inhibitor, full curve]"
COCCCn1cc(CN2CC(N3CCCCC3)CS2(=O)=O)nn1 (stereo not drawn),inactive: 0.839%,
N#C/C(=C\c1cc2ccccc2nc1N1CCOCC1)C(=O)Nc1ccc(N2CCOCC2)cc1,,"inconclusive [inhibitor, single point]"
COCCSc1ccccc1C(=O)Nc1nnc(C)s1,inactive: -1.88%,
NS(=O)(=O)c1ccc(N/N=C/c2ccncc2)cc1,,"inconclusive [inhibitor, single point]"
C/C(=N\NS(=O)(=O)c1ccc(C(C)(C)C)cc1)c1ccccc1,,"inconclusive [inhibitor, partial curve]"
CC(=O)Nc1cccc(/C(C)=N/Nc2ccc(S(=O)(=O)Nc3ccccc3C(=O)O)cc2[N+](=O)[O-])c1,,"inconclusive [inhibitor, single point]"
Cc1ccc2nc(-c3ccco3)c(CC(C)(C)C)n2c1,,"inconclusive [inhibitor, partial curve]"
CCOC(=O)COc1ccc(Br)cc1/C=C\c1[nH]c(=O)[nH]c(=O)c1[N+](=O)[O-],inactive: 13.5%,
CC(=O)c1nn(-c2ccccc2)c(=Nc2ccccc2)cc1C,,"inconclusive [inhibitor, full curve]"
Cc1cc(C)c2oc(C(=O)N(Cc3cccs3)C3CCS(=O)(=O)C3)cc(=O)c2c1 (stereo not drawn),inactive: 4.03%,
Cc1ccccc1NC(=S)Nn1cnnc1,inactive: 6.2%,
Cc1ccc(S(=O)(=O)NN2C(=O)/C(=C/c3cccc(F)c3)SC2=S)cc1,,active: 31.6 µM
CC(C)(C)c1ccc(-c2cc(C(=O)NNC(=O)Nc3ccccc3)c3ccccc3n2)cc1,,"inconclusive [inhibitor, partial curve]"
CC1(C)CC(=O)c2sc(NS(=O)(=O)c3cc(Cl)ccc3Cl)nc2C1,,"inconclusive [inhibitor, partial curve]"
Cc1cc(NC(=O)c2ccccc2F)n(-c2nc3ccccc3[nH]2)n1,inactive: -22.2%,
O=C(O)c1ccc(CSc2nc3c(c(=O)[nH]2)CCC3)cc1,,"inconclusive [inhibitor, single point]"
